# Measurements reported in the supplement of paper PMC2702839.
# Where a name gives a salt, the structure may show the parent alone. Some of the results follow.
# Test system: Schistosoma mansoni schistosomula
# Test: phenotypic hit in primary schistosomula screen (any phenotype vs DMSO control) (binary (1 = hit, 0 = no phenotype)); higher = active (phenotype induced)
# Details: 1 µM; time (d): 7
row,Compound,phenotypic hit
1,CCN1C[C@]2(C)CC[C@H](OC)[C@@]34C1[C@]1(OCO[C@@]15C[C@H](OC)[C@H]1C[C@]3(O)[C@@H]5[C@H]1OC)[C@@H](OC(C)=O)[C@H]24 [deltaline],inactive: 0
2,CC(C)=CCOc1c2occc2cc2ccc(=O)oc12 [imperatorin],inactive: 0
3,N[C@@H](Cc1ccc(N(CCCl)CCCl)cc1)C(=O)O [melphalan],inactive: 0
4,COC(=O)/C(C)=C\CC12OC(C)(C)C3CC(C=C4C(=O)c5c(OC)c6c(c(CC=C(C)C)c5OC431)OC(C)(CCC=C(C)C)C=C6)C2=O (stereo unspecified) [dimethyl gambogate],active: 1
5,CC(C)N(CCC(C(N)=O)(c1ccccc1)c1ccccn1)C(C)C (stereo unspecified) [Disopyramide phosphate],inactive: 0
6,COP(N)(=O)SC (stereo unspecified) [methamidophos],inactive: 0
7,CC[C@@]1(O)C[C@H](O[C@H]2C[C@H](N(C)C)[C@H](O)[C@H](C)O2)c2c(cc3c(c2O)C(=O)c2c(O)cccc2C3=O)[C@H]1C(=O)OC [aklavine hydrochloride],active: 1
8,C[C@H](N)[C@H](O)c1ccc(O)c(O)c1 [levonordefrin],inactive: 0
9,CN1[C@@H]2CC[C@H]1C[C@@H](OC(=O)[C@H](CO)c1ccccc1)C2 [hyoscyamine],inactive: 0
10,CCOP(=S)(OCC)SCSP(=S)(OCC)OCC [ethion],inactive: 0
11,ClC1=C(Cl)C2(Cl)C3C(Cl)C(Cl)CC3C1(Cl)C2(Cl)Cl (stereo unspecified) [chlordane],inactive: 0
12,CNC(=O)O/N=C/C(C)(C)SC [aldicarb],inactive: 0
13,"O=[N+]([O-])c1cc(O)c(O)c([N+](=O)[O-])c1 [3,5-Dinitrocatechol]",inactive: 0
14,"COc1cc2c(cc1OC)C(=O)c1ccc(OC)c(OC)c1OCC(=O)C2 [haematoxylone, tetramethyl-]",inactive: 0
15,Cc1cc(O)ccc1Cl [chlorocresol],inactive: 0
16,CCCN(CCC)c1c([N+](=O)[O-])cc(C(F)(F)F)cc1[N+](=O)[O-] [trifluralin],inactive: 0
17,CC(=O)O[C@H]1C[C@@H](OC(C)=O)C(C)(C)C2C[C@@H](OC(C)=O)[C@]3(C)C(CC[C@@]4(C)[C@H](c5ccoc5)C(=O)[C@H]5O[C@]543)[C@]21C (stereo partly specified) [khayanthone],inactive: 0
18,C=C(C)[C@H]1CN[C@H](C(=O)O)[C@H]1CC(=O)O [kainic acid],inactive: 0
19,CC(C)N(C(=O)CCl)c1ccccc1 [propachlor],inactive: 0
20,C[C@@H]1CC[C@@]2(OC1)O[C@H]1[C@@H](O)[C@H]3[C@@H]4CC[C@H]5C[C@@H](O[C@@H]6O[C@H](CO)[C@H](O[C@@H]7O[C@H](CO)[C@@H](O)[C@H](O[C@@H]8OC[C@@H](O)[C@H](O)[C@H]8O)[C@H]7O[C@@H]7O[C@H](CO)[C@H](O)[C@H](O[C@@H]8O[C@H](CO)[C@@H](O)[C@H](O)[C@H]8O)[C@H]7O)[C@H](O)[C@H]6O)[C@H](O)C[C@]5(C)[C@H]4CC[C@]3(C)[C@H]1[C@@H]2C [digitonin],active: 1
21,CC(C)=CCCC1(C)C=Cc2c(O)c3c(c(CC=C(C)C)c2O1)OC12C(CC4CC1C(C)(C)OC2(C/C=C(/C)C(=O)O)C4O)C3=O (stereo unspecified) [tetrahydrogambogic acid],inactive: 0
22,CC[C@H]1CN2CC[C@H]1C[C@@H]2[C@@H](O)c1ccnc2ccc(OC)cc12 [hydroquinidine],inactive: 0

row,Compound,phenotypic hit
1,C=C[C@H]1CN2CC[C@H]1C[C@H]2[C@H](OC(=O)OCC)c1ccnc2ccc(OC)cc12 [quinine ethyl carbonate],inactive: 0
2,CC(=O)Oc1c2c(c(CC=C(C)C)c3c1C(=O)C1=C[C@@H]4CC5C(C)(C)OC(C/C=C(\C)C(=O)O)(C4=O)[C@@]15O3)OC(C)(CCC=C(C)C)C=C2 (stereo partly specified) [acetyl isogambogic acid],active: 1
3,N#C/C(=C\c1cccc(O)c1)C(=O)O [alpha-cyano-3-hydroxycinnamic acid],inactive: 0
4,O=C([O-])c1ccccc1-c1c2cc(Br)c(=O)cc-2oc2[c]([Hg+])c([O-])c(Br)cc12.[Na+].[Na+].[OH-] [merbromin],inactive: 0
5,CC(=O)O[C@@H]1C[C@@]2(C)[C@H](c3ccoc3)C[C@H]3O[C@]32[C@]2(C)C(=O)C(O)=C3C(C)(C)C(=O)C=C[C@]3(C)[C@@H]12 [anthothecol],inactive: 0
6,O=c1[nH]c2ccccc2n1CCCN1CCC(n2c(=O)[nH]c3cc(Cl)ccc32)CC1 [Domperidone],inactive: 0
7,COP(=S)(OC)Oc1ccc(SC)c(C)c1 [fenthion],inactive: 0
8,COP(=S)(OC)SCn1nnc2ccccc2c1=O [azinphos methyl],inactive: 0
9,C#C[C@]1(O)CC[C@H]2[C@@H]3CCC4=CC(=O)CC[C@]4(C)[C@H]3CC[C@@]21C [ethisterone],inactive: 0
10,CC(C)[N+](C)(CCC(C(N)=O)(c1ccccc1)c1ccccc1)C(C)C [isopropamide iodide],inactive: 0
11,CC(C)CC(N(C)C)C1(c2ccc(Cl)cc2)CCC1 (stereo unspecified) [sibutramine hydrochloride],inactive: 0
12,COc1ccc(CC2c3cc(OC)c(OC)cc3CCN2C)cc1OC (stereo unspecified) [laudanosine],inactive: 0
13,NC(N)=NOCC[C@H](N)C(=O)O [canavanine],inactive: 0
14,"COC(=O)COc1ccc(Cl)cc1Cl [2,4-dichlorophenoxyacetic acid, methyl ester]",inactive: 0
15,C[C@]12CC[C@H]3[C@@H](CC[C@]4(O)C[C@@H](O)CC[C@]34C=O)[C@@]1(O)CC[C@@H]2C1=CC(=O)OC1 [strophanthidin],inactive: 0
16,COc1ccc2c(c1)[C@]13CCCC[C@@H]1[C@H](C2)N(C)CC3 [dextromethorphan hydrobromide],inactive: 0
17,CCC(C)C(=O)c1c(O)c(C)c2oc3c(C)c(O)c(C(=O)C(C)CC)c(O)c3c2c1O (stereo unspecified) [rhodomyrtoxin b],active: 1
18,C[C@H]1O[C@@H](O[C@H]2[C@@H](O)C[C@H](O[C@H]3[C@@H](O)C[C@H](O[C@H]4CC[C@@]5(C)[C@H](CC[C@@H]6[C@@H]5CC[C@]5(C)[C@@H](C7=CC(=O)OC7)[C@@H](O)C[C@]65O)C4)O[C@@H]3C)O[C@@H]2C)C[C@H](O)[C@@H]1O [gitoxin],inactive: 0
19,C=C[C@H]1CN2CC[C@H]1C[C@H]2[C@H](O)c1ccnc2ccccc12 [cinchonidine],inactive: 0
20,CC1=NCCc2c1[nH]c1cc(O)ccc21 [harmalol hydrochloride],inactive: 0
21,COc1c2c(c(CC=C(C)C)c3oc(=O)c(-c4ccc(O)cc4)c(O)c13)OC(C)(C)C=C2 [lonchocarpic acid],inactive: 0
22,"CNNC [1,2-dimethylhydrazine hydrochloride]",inactive: 0

row,Compound,phenotypic hit
1,O=C1C=CC(=O)c2c(O)cccc21 [juglone],inactive: 0
2,CC1(C)C2(Cl)C(Cl)C(Cl)C(Cl)(C(Cl)Cl)C1(Cl)C2Cl (stereo unspecified) [strobane],inactive: 0
3,CNC(=O)ON=C(C)SC [methomyl],active: 1
4,COc1cc(OC)c2c(c1)O[C@H](c1ccc(OC)c(OC)c1)[C@@H](O)C2 [catechin tetramethylether],inactive: 0
5,OC[C@@H]1CCCN2CCCC[C@H]12 [lupinine],inactive: 0
6,C1CCc2nnnn2CC1 [pentetrazole],inactive: 0
7,C=C[C@H]1CN2CC[C@H]1C[C@@H]2[C@@H](O)c1ccnc2ccccc12 [cinchonine],inactive: 0
8,CC(Cc1ccc(O)cc1)NCC(O)c1cc(O)cc(O)c1 (stereo unspecified) [fenoterol hydrobromide],inactive: 0
9,COc1ccc([C@H]2Oc3c(I)c(OC)cc(OC)c3C[C@@H]2O)cc1OC [8-iodocatechin tetramethyl ether],inactive: 0
10,CSc1nc(NC(C)C)nc(NC(C)C)n1 [prometryn],inactive: 0
11,CC1=CC(=O)C2=C(C)C[C@H](O)[C@@H]3[C@H](OC(=O)[C@H]3C)[C@H]12 [austricine],inactive: 0
12,ClC1=C(Cl)C2(Cl)C3C(Cl)C=CC3C1(Cl)C2(Cl)Cl (stereo unspecified) [heptachlor],inactive: 0
13,CC(C)CC(NC(=O)C(Cc1ccccc1)NC(=O)CNC(=O)CNC(=O)C(N)Cc1ccc(O)cc1)C(=O)O (stereo unspecified) [leucine enkephalin],inactive: 0
14,CC(=O)C1=C(O)[C@@H]2[C@H]3c4c[nH]c5cccc(c45)C[C@H]3C(C)(C)N2C1=O [cyclopiazonic acid],active: 1
15,N#Cc1c(Cl)cccc1Cl [dichlobenil],inactive: 0
16,NCCc1cccc(O)c1 [metatyramine hydrochloride],inactive: 0
17,Cc1c(O)c(C(=O)CC(C)C)c2oc3c(C(=O)CC(C)C)c(O)c(C)c(O)c3c2c1O [rhodomyrtoxin],inactive: 0
18,COc1cc([C@@H]2c3cc4c(cc3[C@H](O)[C@H]3COC(=O)[C@@H]23)OCO4)cc(OC)c1OC [picropodophyllin],inactive: 0
19,CCCC(C)C1(CC)C(=O)NC(=S)NC1=O (stereo unspecified) [thiopental sodium],inactive: 0
20,COc1c2c(cc3c1OCO3)[C@]13C=C[C@H](OC)C[C@H]1N(C2)C[C@@H]3O [ambelline],inactive: 0
21,CC(C)=CC1C(C(=O)OCc2cccc(Oc3ccccc3)c2)C1(C)C (stereo unspecified) [phenothrin],inactive: 0
22,C[CH2][Hg][S]c1ccccc1C(=O)[O-].[Na+] [thimerosal],active: 1
